Source: PubChem BioAssay AID686978 (National Center for Advancing Translational Sciences (NCATS), 2013)
Several values for one entry are separate records, joined by “and”; a condition that tells them apart may be missing. Equal entries are not always repeated. In all, about 420,000 compounds went through this assay and about 64,000 (15%) were called active. Inconclusive means that the source gave no clear call. Such entries were picked first, then a sample of the others. The call rests on the fitted dose curve; in most records, active means well fitted inhibition curve with a large enough effect; inconclusive means small, poorly fitted or top-dose-only effect; inactive means flat fitted curve, though single readings scatter. No potency is given beside an inconclusive call; the fits are too rough. The source holds several records for some structures; these can differ, active in one and inactive in another.

experiment: qHTS for Inhibitors of human tyrosyl-DNA phosphodiesterase 1 (TDP1): qHTS in cells in absence of CPT; conditions: DT40 Tdp1-/- hTDP1 cells, no CPT, ATP luminescence, 48 h; activity change, negative = growth inhibition: at 46.2 µM (top of the series) unless noted; further: nearly all actives have a fitted effect of over 55% in size
Procedure, shortened: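 Readout: luminescence from CellTiter-Glo after 30 min in the dark at RT. Cells: DT40 Tdp1-/- with stable hTDP1, 400/well. Exposure: compounds alone, ≥48 hr, 37 °C.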
On the % scale 0 is the no-effect control and ±100 the full control effect; potency means the concentration at half of the fitted maximal effect; tags describe the fitted curve by direction and shape.

Structure (SMILES) | Potency | activity change, negative = growth inhibition
COc1ccc(S(=O)(=O)N2CCCCCC2)cc1C(=O)Nc1cc(C)ccn1 | inconclusive [inhibitor, single point] | –
O=C(NC1CCN(S(=O)(=O)c2ccccc2C(F)(F)F)CC1)c1ccco1 | – | inactive: -12.1%
O=C(NC1CCCc2ccccc21)c1ccccc1Cl (centres undefined) | inconclusive [inhibitor, single point] | –
COc1ccccc1-c1nc(C#N)c(N2CC(C)CC(C)C2)o1 (centres undefined) | active: 18.4 µM | –
CC1=C(/C=C/C(C)=C/C=C/C(C)=C/C=C/C=C(C)/C=C/C=C(C)/C=C/C2=C(C)C(=O)CCC2(C)C)C(C)(C)CCC1=O | – | inactive: -18.9%
N#C/C(=C\c1c(F)cccc1Cl)c1nn(-c2ccccc2)c(-n2cccc2)c1C#N | inconclusive [inhibitor, single point] | –
COC(=O)c1cc2occc2n1Cc1nc(-c2ccccc2Cl)oc1C | inconclusive [inhibitor, single point] | –
CCOC(=O)c1cc(-c2ccccc2)n(CCC(=O)N2CCN(c3ccc(OC)cc3)CC2)c1C | active: 23.1 µM | –
COc1ccc(C)cc1NC(=O)CN1CCN(c2ccccn2)CC1 | inconclusive [inhibitor, partial curve] | –
Cc1cccc(NC(=O)CN2C(=O)N/C(=C/c3cc(C)n(-c4cccnc4)c3C)C2=O)c1 | inconclusive [inhibitor, single point] | –
COc1ccc(N2C(=O)NC3CC2(C)Oc2ccc(Br)cc23)cc1OC (centres undefined) | inconclusive [inhibitor, single point] | –
CCOc1ccccc1C1C(C(=O)Nc2ccccc2OC)=C(C)Nc2nc3ccccc3n21 (centres undefined) | – | inactive: -17.5%
CC(C)CC(=O)NC(=S)Nc1nc(-c2cccc3ccccc23)cs1 | active: 20.6 µM | –
CCOc1ccc(NC(=O)Cc2csc(COc3cccc(C)c3)n2)cc1 | – | inactive: -27.9%
COc1ccc(-c2cc(N3CCCC3)n3ncnc3n2)cc1 | inconclusive [inhibitor, single point] | –
CN(C(=O)CSC(=O)c1ccccc1)c1ccccc1 | – | inactive: -1.44%
CCC(C)n1ncn(-c2ccc(N3CCN(c4ccc(O)cc4)CC3)cc2)c1=O (centres undefined) | inconclusive [inhibitor, single point] | –
Cc1noc(C)c1NC(=O)N(C)C[C@H]1Oc2ccc(NC(=O)C3CC3)cc2C(=O)N([C@H](C)CO)C[C@@H]1C | inconclusive [inhibitor, partial curve, poor fit] | –
COc1ccc(-c2c(-c3ccc4c(c3)OCO4)noc2C)cn1 | inactive and active: 11.2 µM | –
O=C(COc1cccc(NC(=O)c2ccccc2)c1)c1ccccc1 | inconclusive [inhibitor, single point] | –
Cc1[nH]c(-c2ccc(F)cc2)cc1C(=O)N1CCN(c2ccccc2)CC1 | inconclusive [inhibitor, single point] | –
Cc1ccc(C)c(S(=O)(=O)N2CCCCC2CCNC(=O)C(=O)NCc2ccco2)c1 (centres undefined) | active: 8.2 µM | –

Structure (SMILES) | Potency | activity change, negative = growth inhibition
COc1ccc(CCNC(=O)COC(=O)c2ccc(N3CCCC3=O)cc2)cc1OC | inconclusive [inhibitor, single point] | –
O=C(c1csnn1)N1CCC2(CC1)CN(c1ccccc1)C2 | inconclusive [inhibitor, single point] | –
COc1ccccc1C(O)c1ncc(-c2ccc(Cl)cc2)[nH]1 (centres undefined) | inconclusive [inhibitor, single point] | –
COc1ccc(/C=C2\C(=O)c3ccccc3OC2c2ccccc2)cc1 (centres undefined) | inconclusive [inhibitor, single point] | –
CCOc1ccccc1NC1=C(OC)C(=O)C(Nc2ccccc2OCC)=C(OC)C1=O | inconclusive [inhibitor, single point] | –
CSc1ccc(CNC(=O)CCn2ccc3cc(S(=O)(=O)N4CCCC4)ccc32)cc1 | inconclusive [inhibitor, single point] | –
Cc1nn(C)c(C)c1S(=O)(=O)NCCc1ccc(Cl)cc1 | – | inactive: -9.82%
Cc1cccc(C)c1N(CC(=O)N1CCOCC1)S(C)(=O)=O | – | inactive: 7.31%
COc1ccccc1CNC(=O)c1ccc(C)c(-n2cnc3cccnc32)c1 | inconclusive [inhibitor, single point] | –
O=C(O)c1ccc(N2C(=O)CC(N3CCC(c4nc5ccccc5[nH]4)CC3)C2=O)cc1 (centres undefined) | – | inactive: 12.9%
Cc1occc1-c1nnc(SCC(=O)c2cc3ccccc3oc2=O)o1 | – | inactive: -9.53%
Cc1[nH]nc(N=CC2=C(O)CC(c3ccco3)CC2=O)c1-c1ccccc1 (centres undefined) | inconclusive [inhibitor, single point] | –
CCc1nnc2c3ccccc3nc(N3CCN(c4ccc(C)cc4C)CC3)n12 | inconclusive [inhibitor, full curve] | –
CC1(C)CC(=O)C(N=Nc2c(Cl)cc(Cl)cc2Cl)=C(O)C1 | inconclusive [inhibitor, single point] | –
CCC(C)C(=O)Nc1nnc(SCC(=O)Nc2ccc(F)cc2)s1 (centres undefined) | inconclusive [inhibitor, single point] | –
COc1ccc(CN2C(=O)C(NC(=O)c3ccc(C)cc3)(C(F)(F)F)N=C2c2ccccc2)cc1 (centres undefined) | active: 23.1 µM | –
CCOC(=O)c1ccccc1NC(=O)CN(c1ccccc1OC)S(=O)(=O)c1ccc(C)cc1 | active: 11.6 µM | –
c1ccc(-c2cc3c(N4CCN(c5ncccn5)CC4)ncnc3s2)cc1 | inconclusive [inhibitor, single point] | –
CC(C)Oc1ccc(C2c3c(oc4ccccc4c3=O)C(=O)N2CCCN2CCOCC2)cc1 (centres undefined) | inconclusive [inhibitor, single point] | –
Fc1ccc(NC(=S)NN=C2CCCCCC2)cc1 | inconclusive [inhibitor, single point] | –
O=C(CCCn1c(=O)c2cccn2c2cccnc21)NCCc1ccc(Cl)cc1 | active: 23.1 µM | –
O=C(N/N=C/c1cccc(NC(=O)c2ccc(Cl)cc2)c1)c1cccc(O)c1 | active: 13 µM | –
